In PubChem BioAssay AID1362 (SRMLSC, 2008) one finds inhibition data, which are given here for 109 molecules.

The inhibition is the change of the read-out against control, counted positive when it falls.

The other results are listed elsewhere or left out. The main result of the screen is listed elsewhere. These columns were measured beside it and carry no call. Most of these compounds were active or inconclusive in the main read-out, so they are no random draw.

The assay can be described thus: growth inhibition of WT strain, primary screen, mitochondrial fusion inhibitor project, WT and mutant strains, chemical genetic (AID 1362). Note: tested in S. cerevisiae. As to conditions: mitochondrial fusion phenotypic screen, at 10 µM.
In the case of `Cc1ncoc1C(=O)N1CCCC(C(=O)c2ccc(-c3ccccc3)cc2)C1` (centres undefined), the inhibition was 61.3%. Consider `Cc1coc2c1C(=O)C(=O)c1c-2ccc2c1CCCC2(C)C`, for which the inhibition turned out to be 67.7%. Turning to `Cc1cc(C)cc(N(CC(=O)NCC2CCCO2)C(=O)CCC(=O)Nc2cc(C)on2)c1` (centres undefined), the inhibition stood at 97.3%. For `Fc1ccc(CO/N=C/C2=C(Cl)c3ccccc3CC2)cc1` the value was 27.3%; for `Cc1ccc(-c2csc3nc4c5ccccc5c(NCCCN5CCOCC5)nn4c(=O)c23)cc1`, 27.1%; for `O=C(O)c1ccc(-c2nc(-c3ccc(Cl)c(Cl)c3)cs2)cc1`, 51.9%.

Regarding `O=S(=O)(Nc1ccc(-c2csc(-c3ccccc3)n2)cc1)c1ccc(F)cc1`, the inhibition stood at 90.5%. For `Cc1occc(=O)c1OC(=O)Nc1ccc(Cl)c(Cl)c1` the value was 63.9%. For `COc1ccc(CCn2nnnc2C(C(C)C)N2CCN(c3ncccn3)CC2)cc1OC` (centres undefined) the value was 11.3%; for `c1ccc(CSc2ncnc3c2cnn3Cc2ccccc2)cc1`, 43.8%; for `CCCCCC(=O)O[C@]1(C(C)=O)CC[C@H]2[C@@H]3CCC4=CC(=O)CC[C@]4(C)[C@H]3CC[C@@]21C`, -0.28%. With `CCC1(c2ccccc2)NC(=S)N(c2ccc(C)cc2)N1` (centres undefined), the inhibition was determined as 40.8%.

Consider `CCOCCCNC(=O)/C(C#N)=C/c1ccc([N+](=O)[O-])o1`, for which the inhibition came to 89.7%. For `Cc1ccc(C(=O)Nc2ccc(C)c(S(=O)(=O)Nc3ccccc3Cl)c2)s1` the value was 38.3%; for `CC(C)OC(=O)c1c(-c2ccc(C(C)C)cc2)csc1NC(=O)C1CCCO1` (centres undefined), -8.21%; for `COc1ccc2c(c1)C1=C(CC2)C(c2ccc(C)cc2)NC(=S)N1` (centres undefined), 72.1%. For `S=c1[nH]nc(-c2ccco2)n1/N=C/c1ccc(Cl)c(Cl)c1` the value was 48.1%; for `CCc1nnc(NC(=O)C2Cc3ccccc3CN2S(=O)(=O)c2ccc(C)cc2)s1` (centres undefined), 1.89%; for `O=c1c2ccccc2nc(/C=C/c2ccc([N+](=O)[O-])o2)n1CCCO`, 28%. For `c1ccc2c(c1)[nH]c1c(N3CCCC3)ncnc12` the value was -2.96%. Take `COc1ccc(Cl)cc1S(=O)(=O)N1CCN(Cc2ccc3c(c2)OCO3)CC1`: the inhibition was 37.9%. For `COc1cccc(Nc2nc(-c3cccs3)nc3ccccc23)c1` the value was 62.5%; for `C=CCN(CC=C)C(=S)NC(=O)c1ccc(-c2ccccc2)cc1`, 60.2%; for `O=C(c1ccc(Br)o1)N(Cc1ccccc1)Cc1ccccc1`, 51.7%. Turning to `CCc1ccc(C(C)NC(=O)/C(C#N)=C\c2cn[nH]c2-c2ccccc2)cc1` (centres undefined), the inhibition is 15.7%. For `COc1ccccc1NC(=S)NCCSc1ccc(Cl)cc1` the value was 61.1%; for `COc1cc(CNCc2ccccn2)ccc1OCc1ccc(Cl)c(Cl)c1`, 51.7%. Take `CC(C)=C1C2CCC1C(C(=O)Nc1sc(C)c(-c3ccc(C(C)C)cc3)c1C(N)=O)C2C(=O)O` (centres undefined): the inhibition is 4.07%. Regarding `C=CCNC(=S)NN=C1CCCCCCC1`, the inhibition amounted to 37.6%.

On to `CCCc1ccc(/C=C2\C(=O)c3ccccc3C(O)=C2C(=O)OCC)cc1`, for which the inhibition was found to be 24.6%.

Regarding `OC(CC1CC12c1ccccc1-c1ncccc12)(c1ccccc1)c1ccccc1` (centres undefined), the inhibition was determined as 12.6%. For `C=CC[n+]1ccc(/C=C2\C=Cc3cc(C)ccc3N2CC)c2ccccc21` the value was 84.8%.

For `O=C(NCc1ccc2c(c1)OCO2)c1ccc(CSCc2ccc(Cl)cc2)o1`, the inhibition was determined as 32.2%.

As to `CCOc1cc(CNn2cn[nH]c2=S)cc(Cl)c1OCc1ccccc1F`, the inhibition was 22%.

With `CCC(C)c1ccc(NC(=S)Nc2ccc(OC)cc2)cc1` (centres undefined), the inhibition was found to be 37.6%. For `O=C(NCc1ccccc1)/C(=C/c1ccc(OC(F)F)cc1)c1ccccc1` the value was 13.2%; for `Fc1ccc(CCNC(=S)Nc2ccc(F)c(Cl)c2)cc1`, 75.4%. On to `Cc1cc(N/N=C/c2ccc(O)c(C)c2O)nc(-c2ccccc2O)n1`, for which the inhibition came to 23.3%.

As to `Cc1ccc(C(=O)CC(=O)c2cccc(F)c2)c(O)c1`, the inhibition stood at 51.6%. On to `OC(CNCc1ccc(-c2ccccc2)cc1)c1ccccc1` (centres undefined), for which the inhibition is 58.1%. `O=[N+]([O-])c1cc(C(F)(F)F)ccc1NCCc1c[nH]c2ccc(O)cc12`: the inhibition was 43.2%. For `CCCCCc1ccc(C(=O)CCCC)c(=S)[nH]1` the value was 63.1%; for `COC(=O)CP(=O)(c1ccccc1)c1ccccc1`, -3.61%. With `CCN(Cc1cc2ccc(C)cc2[nH]c1=O)C(=O)c1ccncc1`, the inhibition stood at 3.98%. Take `CN(C)CCCN(C(=O)CCc1ccccc1)c1nc2c(F)cccc2s1`: the inhibition came out at 50.6%.

Take `COc1ccc(N/C(N)=N/c2nc(CSc3ccc(C)cc3)cc(=O)[nH]2)cc1`: the inhibition came to 10.5%. Consider `COc1ccc(NC(=S)Nc2ccc(OCc3ccccc3)cc2)c(OC)c1`, for which the inhibition is -6.01%. Turning to `Cc1cccc(N2CCN(C(=O)C(Cc3ccccc3)n3cccc3)CC2)c1C` (centres undefined), the inhibition was determined as 23.4%. Consider `Cc1cc(Oc2cnn(C(C)(C)C)c(=O)c2Cl)cc(C(C)C)c1`, for which the inhibition came out at 10.7%. Turning to `Cc1ccc(CSCc2nc3ccccc3[nH]2)cc1`, the inhibition was determined as 66.8%.

Turning to `Cc1ccc(C(=C2C3C=CC2C2C(=O)NC(=O)C32)c2ccc(C)cc2)cc1` (centres undefined), the inhibition came to 53%.

Take `Cc1ccc(S(=O)(=O)N(CCCO)CC(O)CON=C2c3ccccc3-c3ccccc32)cc1` (centres undefined): the inhibition came to 10.9%. For `CCCCCn1c(N2CCC(Cc3ccccc3)CC2)nc2c1c(=O)[nH]c(=O)n2C` the value was 37.2%. Consider `C=CCNC(=S)NNC(=O)COc1ccc2cc(Br)ccc2c1`, for which the inhibition was 13.9%. For `COc1cc(/C=C/c2ccc(O)cc2)cc(OC)c1` the value was 46.8%. For the molecule `Cc1ccc(C(=O)Nc2ccccc2Oc2ccccc2)cc1[N+](=O)[O-]`, the inhibition stood at 26.1%. Take `O=C(Nc1ccccc1Oc1ccccc1)c1cc([N+](=O)[O-])ccc1Cl`: the inhibition was 18.6%. For `Oc1ccc(N=Nc2nc(-c3ccccc3)c(-c3ccccc3)[nH]2)cc1` the value was 80%. For `C/C(CCC12CC3CC(CC(C3)C1)C2)=N\NC(N)=S`, the inhibition was determined as 77%. For `Cc1ccc(-c2cc(C(F)F)n3ncc(C(=O)N4CCN5CCCC5C4)c3n2)cc1` (centres undefined) the value was -5.39%; for `c1csc(CNc2nc(-c3cccs3)nc3ccccc23)c1`, 63.8%; for `CCOC(=O)CN(C)C(=O)CCc1nnc(-c2ccsc2)o1`, 42.2%. For `COc1ccc(-c2csc3nc(-c4cccnc4)nc(Cl)c23)cc1OC` the value was 25.4%. On to `Cc1ccc(-c2[nH]c3ccccc3c2C(C[N+](=O)[O-])c2ccco2)cc1` (centres undefined), for which the inhibition is 49.1%.

As for `N/C(=N\OC(=O)c1cc(-c2ccccc2)nc2ccccc12)c1ccccn1`, the inhibition came to 43.5%.

On to `Clc1ccc(-c2n[nH]c3c2CCCC3)cc1`, for which the inhibition is 61.1%. For `COc1ccc2cc3c(N)nn(C(=O)C4CCC(C(C)(C)C)CC4)c3nc2c1` (centres undefined) the value was 74.1%; for `CCCCCOc1ccc2oc(=O)c3c(c2c1)CCCN3C(=O)CN1CCCC(C(=O)OCC)C1` (centres undefined), 7.03%; for `CCCCCCCOC(=O)C[N+](C)(C)CCOC1CC2CCC1(C)C2(C)C` (centres undefined), 38%. For `Cc1cc(C)c2nc(C(F)(F)F)nc(N3CC(C)OC(C)C3)c2c1` (centres undefined) the value was 19.9%. Turning to `Cc1ccc(NC2=CC(=O)C(=O)c3ccccc32)cc1`, the inhibition is 57.2%. For `O=C(CSCc1cccc(Cl)c1)Nc1ccccc1-c1ccccc1` the value was -4.28%; for `CC(C)c1ccc(NC(=O)c2sccc2-n2cccc2)cc1`, -9.03%; for `CC1CCc2nc(NC(=O)CN3CCN(c4ccc(F)cc4)CC3)sc2C1` (centres undefined), 6.64%. For the molecule `CC(C)C1OC(c2cccc(NC(=O)c3cccs3)c2)OCC1(C)C` (centres undefined), the inhibition amounted to 4.59%. For `O=C(COc1ccccc1)Nc1ccccc1Oc1ccccc1` the value was 23.9%; for `COC(=O)Cn1ccc(N(C)C)c(C#N)c1=O`, 9.1%.

`O=C(CC(Nc1ccc(F)cc1)c1ccccc1)c1ccccc1` (centres undefined): the inhibition amounted to 17.6%.

On to `Clc1ccc(/C=N/N2CCN(Cc3ccccc3Cl)CC2)cc1`, for which the inhibition stood at 65.8%. For `N/C(Cc1ccc(Cl)cc1Cl)=N\OC(=O)c1ccccc1F`, the inhibition was 84%. For `O=C(Nc1nc(=S)ss1)c1c(F)cccc1F` the value was 15.6%; for `N#CC1=C(N)NC(SCC(=O)c2ccc(Br)cc2)=C(C#N)C12CCCCC2`, -7.27%; for `CCOC(=O)N1CCN(S(=O)(=O)c2ccc(C)cc2)C1c1ccc(OC)cc1` (centres undefined), 21%. For `CCCCNC(=S)N1CCn2cccc2C1c1ccc(F)cc1` (centres undefined) the value was 27.9%; for `O=C(/C=C/Nc1cccc(C(F)(F)F)c1)C(F)(F)F`, -2.43%. For `Cc1cc(Nc2ccccc2)nn1C(=O)c1ccc(Cl)cc1` the value was 52.5%; for `CCOC(=O)c1c(C)oc2c1c(C(c1cccnc1)N1CCOCC1)c(O)c1ccccc12` (centres undefined), 28.1%; for `CC(C)(C)N=C1NN=C(c2cc3ccccc3o2)CS1`, 8.08%. On to `O=C(NCc1ccccc1)c1ccc(C(=O)N(C2CCCCC2)C2CCCCC2)cc1`, for which the inhibition worked out at 5.6%. For the molecule `C/C(=N\NC(=S)NCc1ccccc1)c1ccc2ccccc2c1`, the inhibition is 56.5%. For `CCN(CC)c1nc(-c2ccccc2)ncc1S(=O)(=O)c1ccc(C)cc1` the value was 10.1%. For the molecule `Cn1c(N/N=C/c2cc3ccccc3nc2Cl)nc2ccccc21`, the inhibition turned out to be 62.3%. On to `Cc1ccc(C)c(N2CCN(C(=O)C3CCCCN3S(=O)(=O)c3ccc(F)cc3)CC2)c1` (centres undefined), for which the inhibition was determined as 14%. As to `CCC(C)n1cnc2c(c1=O)c1nc3ccccc3nc1n2Cc1ccc(OC)cc1` (centres undefined), the inhibition turned out to be 52.7%.

As to `Cc1cc(N2C(=O)C=CC2=O)c([N+](=O)[O-])cc1C`, the inhibition was 3%.

In the case of `CC(NS(=O)(=O)c1ccc(Br)cc1)C(N)=O` (centres undefined), the inhibition was found to be 19.5%. For `Cc1ccccc1OCCCCc1c(C)n[nH]c1C`, the inhibition worked out at 70.8%. In the case of `CCn1c(Sc2nc(C)nc3scc(-c4cccs4)c23)n[nH]c1=O`, the inhibition worked out at 69.9%. For `O=C(c1ccc(-c2nnc(-c3ccccc3)o2)cc1)N1CCCCCC1` the value was 1.08%; for `OC(COCc1ccc(Cl)cc1)CN1CCN(CC(O)COCc2ccc(Cl)cc2)CC1` (centres undefined), 56.6%; for `CCCC(c1nnnn1CC1CCCO1)N1CCN(c2cc(Cl)ccc2C)CC1` (centres undefined), 45.2%.

For the molecule `Cc1cc(C(=O)Nn2c(C3CCCCC3)nc3ccccc3c2=O)ccc1[N+](=O)[O-]`, the inhibition worked out at 24.2%. On to `CSc1nc(Sc2ccccc2Cl)c2ccccc2n1`, for which the inhibition was found to be 18.2%. For `CCCn1c2c(c(O)c(C(=O)Nc3nccs3)c1=O)CCCC2` the value was 18.5%. For `COc1ccc(NC(=O)COC(=O)c2c3c(nc4ccccc24)CCCC3)cc1Cl` the value was 42.1%; for `CN(C)S(=O)(=O)c1cccc(C(=O)NCC2CCCO2)c1` (centres undefined), -2.97%; for `Cc1ccc(-c2nnc(SCC(=O)N3CCOCC3)nc2-c2ccc(C)cc2)cc1`, 3.54%. On to `c1ccc2c(CSc3ncnc4nc[nH]c34)cccc2c1`, for which the inhibition was found to be 55.1%. Turning to `COc1ccccc1-c1ccc(SCc2cccc(C)c2)nn1`, the inhibition came to 22.3%.
